Several values for one entry are separate records, joined by “and”; a condition that tells them apart may be missing. Identical values can stand only once. Hit rate of the full screen: of about 410,000 compounds, about 6,400 (1.6%) were called active. Inconclusive means that the source gave no clear call. Such entries were picked first, then a sample of the others. Calls come from the whole dose curve; as a rule, active = well fitted inhibition curve with a large enough effect; inconclusive = small, poorly fitted or top-dose-only effect; inactive = no such curve, though single readings can be large or run the other way. Potencies of inconclusive entries are doubtful fits and often do not repeat.
Biological target: Glucagon-like peptide 1 receptor (Homo sapiens) (UniProt P43220)
Assay: qHTS of GLP-1 Receptor Inverse Agonists (Inhibition Mode); note: nearly all actives have a fitted effect of over 55% in size
Settings: HEK293 GLP-1R CRE-luciferase, luminescence, 24 h, GLP-1R form is constitutively active; activity change, negative = inhibition: at 38.3 µM (top of the series) unless noted
Summary of the method: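 Readout was luciferase luminescence, measured 12 min after detection reagent at room temperature. Beforehand, GLP-1R reporter HEK293 cells had sat 12 h, then received compounds for 24 hr at 37 deg C.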
% is set by controls: 0 for no effect and ±100 for the full control effect; potency is the fitted concentration of half-maximal effect; tags give direction and shape of the fitted curve.

Sequence of UniProt P43220 (P43220 whole entry, looked up): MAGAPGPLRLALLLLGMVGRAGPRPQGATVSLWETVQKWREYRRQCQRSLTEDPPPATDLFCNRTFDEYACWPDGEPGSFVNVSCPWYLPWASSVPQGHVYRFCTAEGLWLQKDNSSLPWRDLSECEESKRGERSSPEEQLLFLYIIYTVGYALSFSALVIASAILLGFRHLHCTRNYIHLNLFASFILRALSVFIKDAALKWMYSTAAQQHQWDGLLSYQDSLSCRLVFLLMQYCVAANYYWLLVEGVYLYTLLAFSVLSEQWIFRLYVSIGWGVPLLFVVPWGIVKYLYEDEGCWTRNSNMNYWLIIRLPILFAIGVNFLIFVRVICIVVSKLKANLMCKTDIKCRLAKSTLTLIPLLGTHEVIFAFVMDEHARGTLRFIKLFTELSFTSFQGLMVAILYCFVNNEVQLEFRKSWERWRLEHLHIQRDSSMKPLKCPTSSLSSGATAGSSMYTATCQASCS

Row | SMILES | activity change, negative = inhibition | Potency
1 | CN(Cc1ccc(Cl)cc1)C(CCc1ccccc1)C(=O)NC1CCCCC1 (configuration not stated) | inactive: 17.6% | 
2 | CN(C)CCCNC(=O)C[C@H]1C[C@H](C(=O)N2CCOCC2)[C@@]2(CCC3CCCC3)c3[nH]c4cc(-c5ccco5)ccc4c3CCN2C1=O |  | inconclusive: 12.6 µM [inhibitor, single point]
3 | Cc1ccc(C)c(NC(=O)c2ccccc2Sc2ccc([N+](=O)[O-])cc2Cl)c1 |  | inconclusive: 8.91 µM [inhibitor, single point]
4 | CCOC(=O)C1CCCN(CCC(=O)Nc2ccc(C)c(C)c2)C1 (configuration not stated) |  | inconclusive: 8.91 µM [inhibitor, single point]
5 | Cc1ccc(/C=N/Nc2nnc(Cl)c3ccccc23)cc1 | inactive: -15.5% | 
6 | COc1ccc(NC(=O)CN2C(=O)CSc3ccc(S(=O)(=O)N(C)C)cc32)cc1Cl | inactive: -15.4% | 
7 | Cc1ccc(-c2c(C(=O)N/N=C/c3ccc4c(c3)OCO4)nnn2-c2nonc2N)cc1 |  | active: 10 µM
8 | CCOCCCN(C(=O)c1snc(C(N)=O)c1N)C(C(=O)NCCC(C)C)c1ccc(Cl)cc1 (configuration not stated) |  | inconclusive: 7.94 µM [inhibitor, partial curve]
9 | Cc1ccc2occ(CC(=O)Nc3ccc(S(=O)(=O)N4CCCC(C)C4)cc3)c2c1 (configuration not stated) |  | active: 11.2 µM
10 | CNc1ncnc2c1ncn2[C@H]1CN(CCOC)C[C@@H](CO)O1 | inactive: 34.5% | 
11 | Cc1ccc(OCC(O)Cn2c(=N)n(CCN3CCOCC3)c3ccccc32)cc1 (configuration not stated) |  | inconclusive: 10 µM [inhibitor, partial curve, poor fit]
12 | CCN(CC)C(=O)[C@H]1CC(CC(=O)NC/C=C(\C)CCC=C(C)C)C(=O)N2CCc3c([nH]c4ccccc34)[C@]12C (some centres not stated) |  | inconclusive: 28.2 µM [inhibitor, single point]
13 | Cc1cccc(C2CC(c3ccc(Br)cc3)Nc3nc(N)nn32)c1 (configuration not stated) |  | inconclusive: 28.2 µM [inhibitor, single point]
14 | O=C(CSCc1ccccc1Cl)N1CCN(c2ccccn2)CC1 |  | inconclusive: 10 µM [inhibitor, partial curve, poor fit]
15 | O=C1c2ccccc2-c2cccc(NS(=O)(=O)c3ccc(C(F)(F)F)cc3)c21 |  | inconclusive: 28.2 µM [inhibitor, single point]
16 | Cc1cccc(-c2nc(CN3CCCC(C(=O)NCc4ccc(Cl)cc4)C3)c(C)o2)c1 (configuration not stated) | inactive: -16% | 
17 | O=C(C1CCCCC1)N1CCN(S(=O)(=O)c2ccc(Br)cc2)CC1 |  | inconclusive: 28.2 µM [inhibitor, single point]
18 | CCc1ccc(N(CC(=O)NCc2ccco2)C(=O)CCC(=O)Nc2nccs2)cc1 |  | inconclusive: 28.2 µM [inhibitor, single point]
19 | COc1cc2ccc3c(CCN(C)C)cc(OC)c(OC)c3c2cc1OC |  | inconclusive: 12.6 µM [inhibitor, single point]
20 | CCCN(c1ccccc1F)S(=O)(=O)c1cc(-c2cc(C)no2)ccc1OC |  | inconclusive: 10 µM [inhibitor, partial curve, poor fit]
21 | CCCCC1=CC2=CC(=O)C(C)(OC(=O)CC)C(=O)C2=CN1c1cccc(C#N)c1 (configuration not stated) | inactive: -8.93% | 

Row | SMILES | activity change, negative = inhibition | Potency
22 | O=C1N/C(=N\N=C\c2cccs2)SC1Cc1cccc(Cl)c1 (configuration not stated) |  | inconclusive: 7.08 µM [inhibitor, partial curve, poor fit]
23 | CS(=O)(=O)N(CC(=O)Nc1ccc(F)c(F)c1)c1cccc([N+](=O)[O-])c1 |  | inconclusive: 28.2 µM [inhibitor, single point]
24 | O=C(NCCc1csc(-c2cccc(F)c2)n1)c1ccccc1C(F)(F)F |  | inconclusive: 11.2 µM [inhibitor, single point]
25 | COc1cc(C(F)(F)F)c(C(=O)N(C)c2ccc(Cl)cc2)cn1 |  | inconclusive: 7.94 µM [inhibitor, partial curve, poor fit]
26 | Cc1[nH]n(C(N)=S)c(=O)c1N=Nc1cccc(C(F)(F)F)c1 | inconclusive: -98.8% [inhibitor] | 
27 | CCCNC(=O)Cc1c(C)n(C(=O)c2ccc(Cl)cc2)c2ccc(OC)cc12 |  | inconclusive: 31.6 µM [inhibitor, partial curve, poor fit]
28 | COc1ccc(NS(=O)(=O)c2cc(NC(=O)CNC(=O)c3cccc(OC)c3)ccc2C)cc1 | inactive: 4.28% | 
29 | CC(C)CNC(=S)NNC(=O)c1csc2c1CCC(C)C2 (configuration not stated) |  | inconclusive: 2.51 µM [inhibitor, full curve]
30 | O=C(NCCN1CCC(n2c(=O)[nH]c3ccccc32)CC1)c1ccc(Cl)cc1Cl |  | inconclusive: 28.2 µM [inhibitor, single point]
31 | O=[N+]([O-])c1cccc(CSc2nc3ccccc3[nH]2)c1 |  | inconclusive: 28.2 µM [inhibitor, single point]
32 | CSc1ncccc1C(=O)OCC(=O)NC1CC1 | inactive: 9.09% | 
33 | CN(C)c1cccc(C(=O)OCC(=O)N(C)c2ccccc2)c1 |  | inconclusive: 28.2 µM [inhibitor, single point]
34 | COc1cc(NC2=Nc3cccc4cccc2c34)cc(OC)c1OC |  | inconclusive: 12.6 µM [inhibitor, single point]
35 | COC(=O)[C@@]12C[C@@H](CC(=O)NCCc3ccccc3OC)C(=O)N(Cc3ccc4c(c3)OCO4)C1=CCC(C)(C)C2 |  | inconclusive: 11.2 µM [inhibitor, partial curve, poor fit]
36 | CCN(C(=O)c1ccccc1F)c1nc(-c2ccc(OC)cc2)cs1 |  | inconclusive: 20 µM [inhibitor, single point]
37 | Cc1cccc(CCNC(=O)C2CCCN(c3ncnc4c3nc3n4CCCCC3)C2)c1 (configuration not stated) |  | inconclusive: 2.82 µM [inhibitor, full curve]
38 | CCc1ccc(NC(=O)c2ccc3nc(C(C)C)oc3c2)cc1 |  | inconclusive: 28.2 µM [inhibitor, single point]
39 | O=c1[nH]c(CSc2ccccn2)nc2c1oc1ccccc12 |  | inconclusive: 1.12 µM [inhibitor, full curve, poor fit]
40 | CC(=Nc1ccccc1)c1sc2ccccc2c1O |  | inconclusive: 20 µM [inhibitor, single point]
41 | O=C(OCC(=O)N1CCCC1)c1ccccc1OCc1ccccc1 |  | inconclusive: 11.2 µM [inhibitor, single point]
42 | CC(C)NC(=O)c1cnn2c1NC(c1cccs1)CC2C(F)(F)F (configuration not stated) |  | inconclusive: 22.4 µM [inhibitor, single point]

Row | SMILES | activity change, negative = inhibition | Potency
43 | CSc1ccc(-c2nc3c(C)cccn3c2Nc2ccc3c(c2)OCCO3)cc1 |  | inconclusive: 11.2 µM [inhibitor, single point]
44 | CC(=O)c1ccc(OCC(O)CN2CCN(CCN3C(=O)c4cccc5cccc(c45)C3=O)CC2)cc1 (configuration not stated) |  | inconclusive: 28.2 µM [inhibitor, single point]
45 | CCc1ccc(-c2cc(C)no2)cc1S(=O)(=O)N1CCN(c2ccc(F)cc2)CC1 |  | inconclusive: 4.47 µM [inhibitor, partial curve]
46 | COc1cc(CN(C)C(C)C(=O)Nc2ccc([N+](=O)[O-])cc2Cl)ccc1OC(F)F (configuration not stated) | inactive: 0.0815% | 
47 | CCc1nc(CN2CCN(c3cc(C(F)(F)F)ccn3)CC2)c(C)[nH]1 |  | inconclusive: 6.31 µM [inhibitor, partial curve]
48 | NC(=S)Nc1ncc(C(F)(F)F)cc1Cl | inactive: 7.56% | 
49 | O=C1CN(C(=O)c2ccc(Br)o2)C(c2ccccc2)c2cc(Cl)ccc2N1 (configuration not stated) |  | inconclusive: 10 µM [inhibitor, partial curve, poor fit]
50 | CCN1CCN(CCNC(=O)C2CCCN(Cc3nc(-c4cccc(Cl)c4)oc3C)C2)CC1 (configuration not stated) |  | inconclusive: 10 µM [inhibitor, partial curve, poor fit]
51 | O=C(COC(=O)c1ccccc1C(=O)OCC(=O)NCCc1c[nH]c2ccccc12)NCCc1c[nH]c2ccccc12 |  | inconclusive: 28.2 µM [inhibitor, single point]
52 | O=C(NCc1ccccc1)C(CCc1ccccc1)n1c(=O)c(-c2cc3ccccc3[nH]2)nc2ccccc21 (configuration not stated) |  | active: 5.62 µM
53 | CN(c1ccccc1)S(=O)(=O)c1ccc(Cl)c(C(=O)Nc2ccc(N3CCOCC3)cc2)c1 |  | inconclusive: 14.1 µM [inhibitor, single point]
54 | Cc1cc(C)cc(N(C(=O)c2nsc(Cl)c2Cl)C(C(=O)NC2CCCC2)c2ccc(O)cc2)c1 (configuration not stated) |  | active: 3.98 µM
55 | Cc1ccc(C)c(N2CCN(C(=O)c3ccc(Nc4nc5ccccc5n5nnnc45)cc3)CC2)c1 | inactive: 7.81% | 
56 | CCCc1cc(=O)oc2cc(C)cc(OCC(=O)NC3CC3)c12 | inactive: 42.5% | 
57 | Cc1ccc(NC(=O)c2ccccc2-c2ccc(C(F)(F)F)cc2)cc1S(=O)(=O)N1CCOCC1 |  | inconclusive: 3.55 µM [inhibitor, partial curve, poor fit]
58 | O=C(/C=C/c1cn(CC(O)CN2CCCCCC2)c2ccccc12)c1cccs1 (configuration not stated) |  | inconclusive: 2 µM [inhibitor, partial curve, poor fit]
59 | N=c1n(CCN2CCCCC2)c2ccccc2n1CC(O)COc1ccccc1 (configuration not stated) |  | inconclusive: 28.2 µM [inhibitor, single point] and inconclusive: 3.98 µM [inhibitor, full curve, poor fit]
60 | C=CCc1ccccc1OCC(O)CN(C(C)C)C(C)C (configuration not stated) |  | inconclusive: 15.8 µM [inhibitor, partial curve, poor fit]
61 | CCOC(=O)/C(=N/Nc1ccc(Cl)cc1)S(=O)(=O)c1ccccc1 |  | inconclusive: 20 µM [inhibitor, single point]
62 | CCOc1ccccc1-c1nc(CN2CCCC2c2nccs2)c(C)o1 (configuration not stated) |  | inconclusive: 8.91 µM [inhibitor, partial curve, poor fit]

— PubChem BioAssay AID624417 (National Center for Advancing Translational Sciences (NCATS), 2012)
